We go through six molecules from article PMC12136788.

This is one part of the list.

To fix the notation:
B1: chr15:59387643:59387644:+_ENSG00000157450_ENST00000557998|hu_hu|FALSE|FALSE (ssRNA)
RNA: GGGAGUUCUACAGUCCGACGAUCAAGGAUGGUAUUUAACUCAGAACUCCAUAUAGUAAAUAUACAGCAGCCAUUUUGUCCUAAUUAAGGAAUGUCUUAAUACACAAUAUUAUCAUUUUCUAGAGGAUCUUUAUACAUUAAACUCAACAGAGGAUUGAGCAUCA
B2: chr14:102446093:102446094:+_ENSG00000197102_ENST00000360184|hu_hu|FALSE|FALSE (ssRNA)
RNA: GGGAGUUCUACAGUCCGACGAUCCUCCGGAAUUUCAAUAUUUUGCUGCAAGUGAAGGAGUCCCAUUUCGAGUUCUGCAAUCUUCUUUUCAACUGAAGGAGCCAUUUUAUCACCAUCCCUGUCUGCCUUGCCAGACUCUCUAAUCAACAGAGGAUUGAGCAUCA
B3: chr8:117878989:117878990:-_ENSG00000164754_ENST00000297338|hu_hu|hu_hu_hu_mus_True|38_38 (ssRNA)
RNA: GGGAGUUCUACAGUCCGACGAUCCCAGAGGCCCUCGUUUACUGAGGACAAAAUGUGCGUAGAACAUUUUUCUUAUUUGCUAUGAAAUAAGAAGAAAACCUUGCUCUGGCGGGGAGCCGGGAGGGGUGGGUGGCCCGGGGAGGGCAACAGAGGAUUGAGCAUCA
B4: 126172741_126172861_247_CDS_ENSG00000107902_ENST00000368842|human|control|control (ssRNA)
RNA: GGGAGUUCUACAGUCCGACGAUCCUCCUUCAGGAUCUGGCAGGCAGCUGGUGCCGGGGCGGUCACCUCCUGCUCAGAGAUGUCAAAUCCCAGCCUCUGAAGCUGCCCCACCAGCUCUGCCCGGGACUUCUGCGACUCGUUGGUCAACAGAGGAUUGAGCAUCA
B5: chr20:37186997:37186998:+_ENSG00000170471_ENST00000397040|hu_mus|FALSE|FALSE (ssRNA)
RNA: GGGAGUUCUACAGUCCGACGAUCAUCAAAAAAUCCAGGUAUGGUAGAAUCGAGUGCAAUAAGAUGAGGAGGUAGACGACUAUUUGCAGGUUCCUUUAAUGCCUCUAAGGAUAAAAAUCCAAAGUGAGAAAGGAAAAGGCGGGCCAACAGAGGAUUGAGCAUCA
B6: chr20:57015987:57015988:+_ENSG00000124164_ENST00000520497|hu_hu|FALSE|FALSE (ssRNA)
RNA: GGGAGUUCUACAGUCCGACGAUCUCCAUAACCUUCUUAACUUCGGUGUCAUCCAAAGAAGAACUCAGAGACUUAGACACUAUUGGUGUUUCUGUCUUUGAUGCAGUUGUGGAUAUAAUUUUAUUUAUUUCUACAUCAUGCAGACAACAGAGGAUUGAGCAUCA

In the test the target is T1, UNK ZnF1-3 (human, UniProt Q9C0B0 31-174).
T1 sequence: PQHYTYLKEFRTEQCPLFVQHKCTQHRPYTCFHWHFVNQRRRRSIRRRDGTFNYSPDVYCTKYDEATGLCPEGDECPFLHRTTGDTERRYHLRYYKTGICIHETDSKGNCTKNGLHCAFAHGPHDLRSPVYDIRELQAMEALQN
Nature of the test: nsRBNS (natural sequence RNA bind-n-seq); RBNS binding buffer (assumed for nsRBNS): 25 mM Tris pH 7.5, 150 mM KCl, 3 mM MgCl2, 0.01% Triton X-100, 500 ug/ml BSA, 20 U/ml SUPERase-In, 4 C; UNK is unkempt and MSI1 is Musashi-1; names of the RNAs are library labels; protein concentration not given here; high values mean tight binding.
Molecule B1 came in with a binding signal of 0.989 enrichment R.

B2 displayed a binding signal of 1.1 enrichment R.

As to B3, the binding signal is 1.64 enrichment R.

Take B4: the binding signal was 0.367 enrichment R.

Turning to B5, the binding signal is 1.49 enrichment R.

With B6, the binding signal came to 0.477 enrichment R.
